Laboratory results from paper PMC12136788.
This is one part of the list.

B1: chr1:163112212:163112213:-_ENSG00000143248_ENST00000313961|hu_hu|hu_hu_hu_mus_False|8_78 (ssRNA)
RNA: GGGAGUUCUACAGUCCGACGAUCUUUUAUUAUCAGUAAGAGUGAGUUACAUACUAGAUAAAGUAUUGGAUACAAUAAUCAGGAAACAAACACUAUUGGUCCAGAAUUUAAAACUUUAUGAGCGAAGGCUUACAAAUGGACUUACAACAGAGGAUUGAGCAUCA
B2: chr2:114393739:114393740:-_ENSMUSG00000057147_ENSMUST00000102542|mus_hu|motif|central (ssRNA)
RNA: GGGAGUUCUACAGUCCGACGAUCGUUAGAUGAUAUCAUCUCUCUGAGCAAAUCUUCCUGGUUUCUCUGCCAAAGAUAAGCGGAAGGCUGGAGAUUAAGCCUUUUACACACAUUUUCCACUCGAAUACGCUGAUAGUCAGAAAGCAACAGAGGAUUGAGCAUCA
B3: chr3:9412954:9412955:+_ENSG00000134077_ENST00000452837|hu_mus|hu_hu_hu_mus_False|38_78 (ssRNA)
RNA: GGGAGUUCUACAGUCCGACGAUCGGUUGAUAUCUCUUCUUUGAUGGCUGGAUUUUCAUAAUAAUCUAAGAUAUGUGAAUCUGAAGUGCUGCUGGCAAACUCUUUUUUACCAUCUUUCUCAUCUGCUUUGUCUCCUUGUCCACACAACAGAGGAUUGAGCAUCA
B4: chr5:111654635:111654636:+_ENSMUSG00000033209_ENSMUST00000156290|mus_mus|FALSE|FALSE (ssRNA)
RNA: GGGAGUUCUACAGUCCGACGAUCGGAGGCUUCCCAGCUCUCCGUAGGCCUGAGCUUUAUUGGAGGCCUCCCCGAGCUCAUGGGCCACCACCAGCCUCUUCUCGAAGCACACGAGGGCCUGCUGCAGGCUUCCCGUCGCCCUGUCAACAGAGGAUUGAGCAUCA
B5: chr7:123332509:123332510:-_ENSG00000106299_ENST00000223023|hu_mus|motif|central (ssRNA)
RNA: GGGAGUUCUACAGUCCGACGAUCUGAGCAGGACACGGGCCGGCUAUUCUGUUCCACUUUUUUCAGCUGAGCACCCUCUCGGAUUUGAUCCAAAAGAGCUGCUUUGUUUCCUGAAGGAGCUGGAACUUGAUGGUCACCAUCAGACAACAGAGGAUUGAGCAUCA
B6: chr11:121178941:121178942:+_ENSG00000109929_ENST00000392789|hu_hu|FALSE|FALSE (ssRNA)
RNA: GGGAGUUCUACAGUCCGACGAUCACAUAUUUUUACUCUUAUUAAAUAAUGGUUUUAAAUAAUAAUCAUCACAAUGUUUAGCUACAUAAUCCCAGAUCUGGAUUAAAUCAUGGUGAUAUCGAUAUUUUUAAAUUCCAAUUUAUUCAACAGAGGAUUGAGCAUCA

target: T1, UNK ZnF1-3 (human, UniProt Q9C0B0 31-174); experiment: nsRBNS (natural sequence RNA bind-n-seq); RBNS binding buffer (assumed for nsRBNS): 25 mM Tris pH 7.5, 150 mM KCl, 3 mM MgCl2, 0.01% Triton X-100, 500 ug/ml BSA, 20 U/ml SUPERase-In, 4 C; UNK is unkempt and MSI1 is Musashi-1; names of the RNAs are library labels; protein concentration not given here; high values mean tight binding
T1 sequence: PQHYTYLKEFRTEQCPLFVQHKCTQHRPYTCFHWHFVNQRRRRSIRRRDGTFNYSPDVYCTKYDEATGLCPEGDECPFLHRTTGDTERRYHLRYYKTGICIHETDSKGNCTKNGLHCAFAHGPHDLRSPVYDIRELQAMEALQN

Row | Binder | binding signal
1 | B1 | 0.812 enrichment R
2 | B2 | 1.04 enrichment R
3 | B3 | 0.488 enrichment R
4 | B4 | 0.586 enrichment R
5 | B5 | 0.739 enrichment R
6 | B6 | 0.983 enrichment R
